Reference: PMC7481202
No constants are given. Whether binding was seen depends on the method and setting. In cells and extracts the contact can be indirect. Some entries that bind do so weakly or less than the wild type. For part of these data: Where a sequence is shown, tags or fusion partners need not be part of it. Blank lines part the entries; values can stand above or below the molecule they belong to.

The chains behind the UniProt entries cited, without tags or fusion partners.
UniProt P07355: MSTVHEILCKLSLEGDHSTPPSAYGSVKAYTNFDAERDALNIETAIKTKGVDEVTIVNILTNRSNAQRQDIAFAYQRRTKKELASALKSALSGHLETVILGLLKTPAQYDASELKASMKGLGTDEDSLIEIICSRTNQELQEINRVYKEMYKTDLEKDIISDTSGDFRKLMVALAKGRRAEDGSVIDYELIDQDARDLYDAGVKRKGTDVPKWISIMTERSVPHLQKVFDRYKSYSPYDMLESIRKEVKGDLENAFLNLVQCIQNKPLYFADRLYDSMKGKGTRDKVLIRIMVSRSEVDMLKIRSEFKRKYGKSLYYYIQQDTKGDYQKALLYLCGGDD
UniProt P60903: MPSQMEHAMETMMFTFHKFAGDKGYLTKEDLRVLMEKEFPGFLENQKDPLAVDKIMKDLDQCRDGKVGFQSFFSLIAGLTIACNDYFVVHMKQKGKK
UniProt P40763: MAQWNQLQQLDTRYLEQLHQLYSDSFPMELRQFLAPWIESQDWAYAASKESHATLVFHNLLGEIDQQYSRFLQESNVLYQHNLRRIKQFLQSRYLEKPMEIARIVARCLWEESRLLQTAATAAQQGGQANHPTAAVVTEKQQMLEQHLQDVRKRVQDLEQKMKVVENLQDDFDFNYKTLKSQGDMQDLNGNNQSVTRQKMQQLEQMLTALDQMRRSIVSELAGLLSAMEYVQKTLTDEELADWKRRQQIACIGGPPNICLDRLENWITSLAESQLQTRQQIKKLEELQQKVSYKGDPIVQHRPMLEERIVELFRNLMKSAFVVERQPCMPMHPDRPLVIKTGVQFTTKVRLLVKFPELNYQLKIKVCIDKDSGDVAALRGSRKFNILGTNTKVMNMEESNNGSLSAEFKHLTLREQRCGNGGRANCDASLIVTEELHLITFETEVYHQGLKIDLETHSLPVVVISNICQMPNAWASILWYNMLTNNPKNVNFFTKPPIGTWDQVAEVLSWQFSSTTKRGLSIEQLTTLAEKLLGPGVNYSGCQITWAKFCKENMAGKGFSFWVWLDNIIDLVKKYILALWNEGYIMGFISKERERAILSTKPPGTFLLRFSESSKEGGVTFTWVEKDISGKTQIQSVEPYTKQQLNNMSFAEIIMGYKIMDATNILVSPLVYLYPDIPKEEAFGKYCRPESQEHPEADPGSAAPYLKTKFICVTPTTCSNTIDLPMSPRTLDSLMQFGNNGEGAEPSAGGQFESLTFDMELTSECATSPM

How the values were obtained:
[1] = biological target: annexin A2 (endogenous) (human (endogenous in HEK293 MSR and HeLa)) (UniProt P07355); assay: proximity ligation; Duolink PLA on methanol-fixed HeLa cells, endogenous untagged proteins, two primary antibodies; wild type and AnxA2 KO cells
[2] = biological target: annexin A2 (endogenous) (human (endogenous in HEK293 MSR and HeLa)) (UniProt P07355); assay: co-IP; immunoprecipitation of endogenous AnxA2, blot for endogenous STAT3 (Supplementary Fig. 3a); methods not shown
[3] = biological target: S100A10 (endogenous) (human (endogenous in HeLa)) (UniProt P60903); assay: proximity ligation; Duolink PLA on methanol-fixed HeLa cells, endogenous untagged proteins, two primary antibodies; wild type and AnxA2 KO cells
Prx2-SBP (human) = biological target: T1, Prx2-SBP (human) (UniProt P32119); assay: pull-down; SBP-tagged bait from transfected, untreated cells; NEM block; lysis in 1% Triton X-100 in TBS; streptavidin sepharose 4 h; elution with 4 mM biotin; immunoblot; also after AnxA2 siRNA
T1 sequence: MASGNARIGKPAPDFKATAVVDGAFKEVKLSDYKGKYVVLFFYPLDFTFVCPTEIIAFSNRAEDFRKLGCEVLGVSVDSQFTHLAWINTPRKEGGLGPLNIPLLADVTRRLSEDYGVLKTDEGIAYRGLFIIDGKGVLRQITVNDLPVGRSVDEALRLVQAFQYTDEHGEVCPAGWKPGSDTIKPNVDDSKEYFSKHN

SBP-STAT3 (human) = SBP-STAT3 (human) (UniProt P40763); assay: as above
STAT3-HA-LN151 (human) = STAT3-HA-LN151 (human) (UniProt P40763); assay: split reporter; mLumin BiFC in HEK293 MSR cells; one partner stably expressed, the other transiently transfected; read 48 h after transfection in DPBS on a microplate reader; mLumin fluorescence normalised to co-transfected GFP

Molecule: STAT3 (endogenous) (from UniProt P40763 1-770)
- binding [2]: binds
- binding [1]: binds
- binding [3]: no binding

B2: peroxiredoxin 2 (endogenous) (protein, UniProt P32119 1-198)
chain: T1 sequence
- binding [1]: binds
- binding [3]: no binding

Results, then the molecule that gave them:

- binding [1]: binds
Molecule: S100A10 (endogenous) (from UniProt P60903 1-97)

- binding (Prx2-SBP (human)): binds
- binding (SBP-STAT3 (human)): binds
Molecule: annexin A2 (endogenous) (from UniProt P07355 1-339)

- binding (STAT3-HA-LN151 (human)): binds weakly
B1: Prx1-MYC-LC151 (protein, UniProt Q06830 1-199)
chain: MSSGNAKIGHPAPNFKATAVMPDGQFKDISLSDYKGKYVVFFFYPLDFTFVCPTEIIAFSDRAEEFKKLNCQVIGASVDSHFCHLAWVNTPKKQGGLGPMNIPLVSDPKRTIAQDYGVLKADEGISFRGLFIIDDKGILRQITVNDLPVGRSVDETLRLVQAFQFTDKHGEVCPAGWKPGSDTIKPDVQKSKEYFSKQK
